Data taken from the RNAGym collection of RNA variant scans (doi:10.7554/elife.90254).
The source gives no read counts; variants with many changes may rest on few reads.

B1: LINE1-mini (parent)
chain: GGCAGAGCUCAACACAGCGUGGCAAAGUGGCUGUGGCUAGACUGCC

Variants of: B1
Test: self-cleavage, relative activity (ratio to wild type); higher = more cleavage; in vitro, sequencing; the parent is a self-cleaving ribozyme
Variant C3U G27U G35C G36U has a self-cleavage of 0.09.
For C3U G22A G36A, the self-cleavage was 0.13.
Variant A4C A12C G19U U38A C42A has a self-cleavage of 0.
C3U U20A A26C C37A A41U gave a self-cleavage of 0.01.
A4C C18A A24C A25G G30U showed a self-cleavage of 0.01.
C3U U9A C10A U20C G21C showed a self-cleavage of 0.02.
With C3U U28G A39U C42U the self-cleavage was 0.28.
Work on C3U G22U C23A U28A yielded a self-cleavage of 0.23.
With C3U G27C C42A the self-cleavage was 0.03.
Variant C3U U9A U38G A41C has a self-cleavage of 0.01.
In the case of A4C A16U C18G, the self-cleavage is reported as 0.2.
C3U G35A A41G showed a self-cleavage of 0.06.
C3U G17C U38A gave a self-cleavage of 0.18.
For C3U G7U G35C, the self-cleavage was 0.03.
Work on C3U G33A A41C yielded a self-cleavage of 0.05.
A4C A24G A26C G36U showed a self-cleavage of 0.15.
With A4C A11U C13A C31A the self-cleavage was 0.03.
Work on C3U G40C G44A yielded a self-cleavage of 0.17.
Variant A4C C13G A41G has a self-cleavage of 0.02.
C3U G19U C46U gave a self-cleavage of 0.11.
For A4C C10A U32A G33C, the self-cleavage was 0.08.
For C3U G7C A11U A14C, the self-cleavage was 0.07.
For C3U G17U G36U, the self-cleavage was 0.07.
A4C C13A C15A G29A U38C C45A C46U gave a self-cleavage of 0.02.
A4C A16C U32G gave a self-cleavage of 0.19.
In the case of C3U G21C C45A, the self-cleavage is reported as 0.11.
In the case of C3U G7U C8A C18A, the self-cleavage is reported as 0.33.
Variant A4C C10A C15G C18G has a self-cleavage of 0.07.
C3U G17C G19C G36C showed a self-cleavage of 0.11.
Work on C3U U34A U38G C45U C46A yielded a self-cleavage of 0.01.
C3U G30A G44C C45A showed a self-cleavage of 0.08.
With A4C A16U C18A U43C the self-cleavage was 0.01.
C3U G22C G27C G29U gave a self-cleavage of 0.08.
Work on C3U G29A U32C yielded a self-cleavage of 0.08.
For C3U U20G A24U A25U G35A, the self-cleavage was 0.1.
For C3U G19A G22C C23U, the self-cleavage was 0.12.
For A4C C15U A24G G30A, the self-cleavage was 0.11.
With A4C A6U C42G the self-cleavage was 0.02.
With A4C A12G G29U G44A C45A the self-cleavage was 0.04.
For A4C C15G G17A G36U C42U G44A, the self-cleavage was 0.04.
For A4C C8U A16G C23U A25C U28A G40A G44C, the self-cleavage was 0.07.
In the case of C3U G27C G30U, the self-cleavage is reported as 0.96.
Variant C3U G17A G22A A26C has a self-cleavage of 0.14.
For A4C A11U A26U, the self-cleavage was 0.05.
In the case of C3U G17C G19C G30C C45A, the self-cleavage is reported as 0.2.
With A4C A14U U34A A41U the self-cleavage was 0.08.
A4C A11G G19U showed a self-cleavage of 0.01.
Variant A4C A16C U20G C31A G33U has a self-cleavage of 0.1.
In the case of C3U U9G U43G, the self-cleavage is reported as 0.71.
With A4C A11U C46U the self-cleavage was 0.01.
In the case of C3U U20A C42A, the self-cleavage is reported as 0.08.
With C3U G19C C45G the self-cleavage was 0.04.
In the case of A4C C10U G22U G30A G35U G40U, the self-cleavage is reported as 0.03.
A4C C13A C15A gave a self-cleavage of 0.14.
Work on A4C C18U G21A yielded a self-cleavage of 0.09.
Variant C3U G7C A25U G29A C42A C45U has a self-cleavage of 0.01.
C3U G19A C23G showed a self-cleavage of 0.29.
C3U G19C G27C U28C C37A showed a self-cleavage of 0.01.
For C3U U32A C46U, the self-cleavage was 0.02.
A4C C10G C31A C46U showed a self-cleavage of 0.02.
Work on C3U G27C G36C A41U U43A yielded a self-cleavage of 0.
For A4C A6U G7U U32C, the self-cleavage was 0.62.
In the case of C3U G17C A25C U43A, the self-cleavage is reported as 0.06.
For A4C A16C A24G U28A G36U, the self-cleavage was 0.05.
In the case of A4C C13A C15U C42U, the self-cleavage is reported as 0.8.
Work on A4C A6U C10A C23A yielded a self-cleavage of 0.04.
For A4C C18A G27C, the self-cleavage was 0.01.
Variant C3U G7U C42A has a self-cleavage of 0.1.
Variant A4C A11C C23A C45A has a self-cleavage of 0.
C3U G7C A11U U20A showed a self-cleavage of 0.01.
Variant A4C A14U G19U C31A G33C A41G has a self-cleavage of 0.03.
A4C A14U C46A showed a self-cleavage of 0.28.
For A4C A25G U32C, the self-cleavage was 0.06.
For C3U U9G G29U G30A C37U C42G, the self-cleavage was 0.43.
A4C A25U G29A A41U gave a self-cleavage of 0.25.
Variant A4C A16C G27A U28G C45G has a self-cleavage of 0.
In the case of C3U G33C U34G A41U, the self-cleavage is reported as 0.05.
A4C A12U G22U C37U G40U showed a self-cleavage of 0.2.
For C3U U34G G40C, the self-cleavage was 0.03.
In the case of C3U U20G A39C, the self-cleavage is reported as 0.06.
With A4C C18A G30U C42A the self-cleavage was 0.82.
For A4C A16U G19U C46U, the self-cleavage was 0.09.
Variant C3U G19C C23G U43A has a self-cleavage of 0.02.
C3U G21U G30A gave a self-cleavage of 0.35.
For A4C A11C C37U, the self-cleavage was 0.01.
For A4C C10G G36A A41G C46A, the self-cleavage was 0.
Work on C3U G21A G22U yielded a self-cleavage of 0.1.
A4C A6U C8A A41C showed a self-cleavage of 0.17.
Variant A4C C15U A41U has a self-cleavage of 0.08.
C3U G30A C46G gave a self-cleavage of 0.11.
A4C A16C G29U gave a self-cleavage of 0.06.
Variant A4C C8G C23A G29U C31A has a self-cleavage of 0.06.
With A4C C8A G17U G33U the self-cleavage was 0.27.
Variant A4C C13U G36U has a self-cleavage of 0.09.
Variant A4C A11U C15G C46G has a self-cleavage of 0.01.
In the case of A4C A6C U9G G29C, the self-cleavage is reported as 0.09.
For A4C A6G C10G A26U U43G C45A, the self-cleavage was 0.
In the case of A4C A39G C46U, the self-cleavage is reported as 0.19.
A4C A12G U43A C46G showed a self-cleavage of 0.01.
Work on A4C C8G A16G G30A C42G yielded a self-cleavage of 0.03.
C3U G22U G27U G40A showed a self-cleavage of 0.04.
A4C A11C A16C G30U C45U gave a self-cleavage of 0.01.
With A4C A6U G27U the self-cleavage was 0.34.
With A4C A6C A39U C45G C46G the self-cleavage was 0.
Variant A4C C10U G30C G40U has a self-cleavage of 0.05.
For C3U G7C G19A G35U, the self-cleavage was 0.03.
In the case of A4C C8U A16C G29A C45U, the self-cleavage is reported as 0.06.
Work on C3U G22C A26C G27A yielded a self-cleavage of 0.2.
For A4C C13A U38A, the self-cleavage was 0.03.
Work on C3U U9C A11G C15A U20G G21A yielded a self-cleavage of 0.01.
For A4C A11G C42U, the self-cleavage was 0.08.
A4C A11U A25C C46A showed a self-cleavage of 0.01.
For A4C C10U C15A U20C, the self-cleavage was 0.04.
For C3U U9C C13U G19A C23U, the self-cleavage was 0.02.
C3U U9G G19U C23U C37U gave a self-cleavage of 0.13.
Work on A4C C13A G36U yielded a self-cleavage of 1.39.
A4C C18U G22U C23A C37U showed a self-cleavage of 1.07.
With C3U U9G C45U the self-cleavage was 0.44.
With A4C A24U G30U the self-cleavage was 0.37.
With A4C A12U A25C the self-cleavage was 0.03.
With C3U U9A C18U G33U the self-cleavage was 0.17.
C3U G21A A24C A25G A26C U28G showed a self-cleavage of 0.25.
In the case of A4C A16C G21U C31U C46A, the self-cleavage is reported as 0.02.
A4C A6C U9A C10G showed a self-cleavage of 0.02.
In the case of A4C C15A A16G A39C C42U, the self-cleavage is reported as 0.04.
Work on C3U G36U C46A yielded a self-cleavage of 0.31.
For C3U G36U C46G, the self-cleavage was 0.03.
Variant A4C A6G G22C C45A C46G has a self-cleavage of 0.04.
A4C A6C G30U C31A U38A showed a self-cleavage of 0.03.
Variant A4C C10A G35C C46U has a self-cleavage of 0.04.
Work on C3U G17A C37U yielded a self-cleavage of 0.06.
With C3U U32A G40C C45U the self-cleavage was 0.04.
Work on A4C A26U G30U yielded a self-cleavage of 0.24.
With A4C A12C U43A the self-cleavage was 0.02.
With A4C A12C G21A U38A A41U C42G U43A the self-cleavage was 0.
Work on C3U G17U G33A yielded a self-cleavage of 0.11.
Variant A4C C10G C45U has a self-cleavage of 0.02.
In the case of C3U U20A G21U, the self-cleavage is reported as 0.08.
With A4C A11U U28C A41C the self-cleavage was 0.01.
For C3U G17A A26U U32C, the self-cleavage was 0.4.
With C3U U28G A39U G40C U43G the self-cleavage was 0.01.
With C3U U9C A16U G33A A41G C45G the self-cleavage was 0.01.
In the case of C3U G7C G29C G35C, the self-cleavage is reported as 0.06.
Work on A4C A11C C31U G33A yielded a self-cleavage of 0.03.
A4C A14U C23G A26G showed a self-cleavage of 0.05.
Work on A4C C10A G19A G21A C37A U43G yielded a self-cleavage of 0.
A4C C10A G30A A41G C42A gave a self-cleavage of 0.01.
For A4C C8A C10A G17C C18G A25C, the self-cleavage was 0.02.
Work on C3U U28A G29C yielded a self-cleavage of 0.12.
For A4C C18A G22C, the self-cleavage was 0.09.
In the case of C3U G27C C37A, the self-cleavage is reported as 0.07.
A4C A14U G21U A41U gave a self-cleavage of 0.02.
C3U G7A U28A G30C U32G G35U showed a self-cleavage of 0.14.
In the case of A4C C10A C15U, the self-cleavage is reported as 0.07.
In the case of A4C C8G C15A G21C G30A C45A, the self-cleavage is reported as 0.07.
Work on C3U G19C A25U A26G A39U yielded a self-cleavage of 0.07.
With A4C C13U C45A C46U the self-cleavage was 0.02.
Variant C3U G29C G30A G36U has a self-cleavage of 0.45.
Work on C3U G21C A24U U43A yielded a self-cleavage of 0.06.
For A4C C15A A24C A39C, the self-cleavage was 0.01.
In the case of C3U G17A U20A, the self-cleavage is reported as 0.33.
In the case of A4C A24C C31U G44U, the self-cleavage is reported as 0.08.
For A4C C15U G40A, the self-cleavage was 0.09.
Variant C3U U20A C23A G30A has a self-cleavage of 0.31.
For A4C C18U G33U C37G, the self-cleavage was 0.04.
For A4C A11C G22U, the self-cleavage was 0.02.
C3U G30A C37G C46U showed a self-cleavage of 0.1.
